Measurements published in the supplement of paper PMC4967469.
A lower IC50 marks a more sensitive line; a fit beyond the top or the lowest dose is shown as a bound at that dose. AUC is the area under the same curve over the 256-fold range up to the top dose, as a fraction; it is 1 without any effect and falls as sensitivity rises. For some assays here: The top dose, if marked as inferred, was derived from the fitted curves, not read from the paper.

Legend:
Experiment in all cases: Viability of human cancer cell lines after 72 h of drug (GDSC screen)
QL-XI-92 = compound: C=CC(=O)Nc1cc(NC(=O)c2ccc(C)c(NC(=O)c3ccno3)c2)cc(C(F)(F)F)c1 [QL-XI-92]; conditions: top dose 10.24 µM; top dose inferred
Experimental: (§1)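 Human cancer cell lines in 384-well plates, medium with 10% serum, drug for 72 h over a 256-fold dose range (nine 2-fold or five 4-fold steps up to the top dose). Adherent lines were fixed and stained with the nucleic acid dye Syto60, suspension lines read with resazurin; signal relative to control wells, capped at 0 and 100%. One two-parameter sigmoid per drug and line, fitted in a mixed model over all curves with the slope shared within a line.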

WHI-P97 = compound: COc1cc2ncnc(Nc3cc(Br)c(O)c(Br)c3)c2cc1OC [WHI-P97]; conditions: top dose 10.24 µM; top dose inferred
Experimental: as §1

EHT 1864 = compound: O=c1cc(CN2CCOCC2)occ1OCCCCCSc1ccnc2cc(C(F)(F)F)ccc12 [EHT 1864]; conditions: top dose 10 µM; top dose inferred
Experimental: as §1

AG-014699 = compound: CNCc1ccc(-c2[nH]c3cc(F)cc4c3c2CCNC4=O)cc1 [AG-014699]; conditions: top dose 5 µM; top dose inferred
Experimental: as §1

Vinorelbine = compound: CCC1=C[C@@H]2CN(C1)Cc1c([nH]c3ccccc13)[C@@](C(=O)OC)(c1cc3c(cc1OC)N(C)[C@H]1[C@@](O)(C(=O)OC)[C@H](OC(C)=O)[C@]4(CC)C=CCN5CC[C@]31[C@@H]54)C2 [Vinorelbine]; conditions: top dose 0.064 µM; top dose inferred
Experimental: as §1

Phenformin = compound: N=C(N)NC(=N)NCCc1ccccc1 [Phenformin]; conditions: top dose 4000 µM; top dose inferred
Experimental: as §1

S-Trityl-L-cysteine = compound: N[C@@H](CSC(c1ccccc1)(c1ccccc1)c1ccccc1)C(=O)O [S-Trityl-L-cysteine]; conditions: top dose 5.12 µM; top dose inferred
Experimental: as §1

XL-184 = compound: COc1cc2nccc(Oc3ccc(NC(=O)C4(C(=O)Nc5ccc(F)cc5)CC4)cc3)c2cc1OC [XL-184]; conditions: top dose 5.12 µM; top dose inferred
Experimental: as §1

Gefitinib = compound: COc1cc2ncnc(Nc3ccc(F)c(Cl)c3)c2cc1OCCCN1CCOCC1 [Gefitinib]; conditions: top dose 0.5 µM
Experimental: as §1

NU-7441 = compound: O=c1cc(N2CCOCC2)oc2c(-c3cccc4c3sc3ccccc34)cccc12 [NU-7441]; conditions: top dose 2 µM; top dose inferred
Experimental: as §1

SHP-77 (small cell lung carcinoma, semi-adherent)
AUC (QL-XI-92): 0.985 | IC50 (QL-XI-92): > 10.2 µM | AUC (WHI-P97): 0.983 | IC50 (WHI-P97): > 10.2 µM | AUC (EHT 1864): 0.945 | IC50 (EHT 1864): > 10 µM | AUC (AG-014699): 0.985 | IC50 (AG-014699): > 5 µM | AUC (Vinorelbine): 0.973 | IC50 (Vinorelbine): > 0.064 µM | AUC (Phenformin): 0.737 | IC50 (Phenformin): 1080 µM | AUC (S-Trityl-L-cysteine): 0.73 | IC50 (S-Trityl-L-cysteine): 1.33 µM | AUC (XL-184): 0.975 | IC50 (XL-184): > 5.12 µM | AUC (Gefitinib): 0.963 | IC50 (Gefitinib): > 0.5 µM | AUC (NU-7441): 0.992 | IC50 (NU-7441): > 2 µM

SIMA (neuroblastoma, adherent)
AUC (QL-XI-92): 0.964 | IC50 (QL-XI-92): > 10.2 µM | AUC (WHI-P97): 0.962 | IC50 (WHI-P97): > 10.2 µM | AUC (EHT 1864): 0.985 | IC50 (EHT 1864): > 10 µM | AUC (AG-014699): 0.958 | IC50 (AG-014699): > 5 µM | AUC (Vinorelbine): 0.916 | IC50 (Vinorelbine): > 0.064 µM | AUC (Phenformin): 0.98 | IC50 (Phenformin): > 4000 µM | AUC (S-Trityl-L-cysteine): 0.942 | IC50 (S-Trityl-L-cysteine): > 5.12 µM | AUC (XL-184): 0.933 | IC50 (XL-184): > 5.12 µM | AUC (Gefitinib): 0.985 | IC50 (Gefitinib): > 0.5 µM | AUC (NU-7441): 0.98 | IC50 (NU-7441): > 2 µM

SJSA-1 (bone, adherent)
AUC (QL-XI-92): 0.948 | IC50 (QL-XI-92): > 10.2 µM | AUC (WHI-P97): 0.982 | IC50 (WHI-P97): > 10.2 µM | AUC (EHT 1864): 0.971 | IC50 (EHT 1864): > 10 µM | AUC (AG-014699): 0.959 | IC50 (AG-014699): > 5 µM | AUC (Vinorelbine): 0.711 | IC50 (Vinorelbine): 0.0172 µM | AUC (Phenformin): 0.761 | IC50 (Phenformin): 1590 µM | AUC (S-Trityl-L-cysteine): 0.636 | IC50 (S-Trityl-L-cysteine): 0.801 µM | AUC (XL-184): 0.969 | IC50 (XL-184): > 5.12 µM | AUC (Gefitinib): 0.984 | IC50 (Gefitinib): > 0.5 µM | AUC (NU-7441): 0.94 | IC50 (NU-7441): > 2 µM

SK-MEL-1 (melanoma, suspension)
AUC (QL-XI-92): 0.992 | IC50 (QL-XI-92): > 10.2 µM | AUC (WHI-P97): 0.982 | IC50 (WHI-P97): > 10.2 µM | AUC (EHT 1864): 0.976 | IC50 (EHT 1864): > 10 µM | AUC (AG-014699): 0.976 | IC50 (AG-014699): > 5 µM | AUC (Vinorelbine): 0.985 | IC50 (Vinorelbine): > 0.064 µM | AUC (Phenformin): 0.855 | IC50 (Phenformin): 2530 µM | AUC (S-Trityl-L-cysteine): 0.991 | IC50 (S-Trityl-L-cysteine): > 5.12 µM | AUC (XL-184): 0.993 | IC50 (XL-184): > 5.12 µM | AUC (Gefitinib): 0.993 | IC50 (Gefitinib): > 0.5 µM | AUC (NU-7441): 0.993 | IC50 (NU-7441): > 2 µM

SK-UT-1 (soft tissue, adherent)
AUC (QL-XI-92): 0.973 | IC50 (QL-XI-92): > 10.2 µM | AUC (WHI-P97): 0.989 | IC50 (WHI-P97): > 10.2 µM | AUC (EHT 1864): 0.963 | IC50 (EHT 1864): > 10 µM | AUC (AG-014699): 0.924 | IC50 (AG-014699): > 5 µM | AUC (Vinorelbine): 0.392 | IC50 (Vinorelbine): 0.00208 µM | AUC (Phenformin): 0.883 | IC50 (Phenformin): 3640 µM | AUC (S-Trityl-L-cysteine): 0.612 | IC50 (S-Trityl-L-cysteine): 0.632 µM | AUC (XL-184): 0.989 | IC50 (XL-184): > 5.12 µM | AUC (Gefitinib): 0.963 | IC50 (Gefitinib): > 0.5 µM | AUC (NU-7441): 0.899 | IC50 (NU-7441): > 2 µM

SU-DHL-4 (B-cell lymphoma, suspension)
AUC (QL-XI-92): 0.983 | IC50 (QL-XI-92): > 10.2 µM | AUC (WHI-P97): 0.997 | IC50 (WHI-P97): > 10.2 µM | AUC (EHT 1864): 0.985 | IC50 (EHT 1864): > 10 µM | AUC (AG-014699): 0.997 | IC50 (AG-014699): > 5 µM | AUC (Vinorelbine): 0.836 | IC50 (Vinorelbine): 0.0267 µM | AUC (Phenformin): 0.16 | IC50 (Phenformin): 36.5 µM | AUC (S-Trityl-L-cysteine): 0.712 | IC50 (S-Trityl-L-cysteine): 1.04 µM | AUC (XL-184): 0.944 | IC50 (XL-184): 4.72 µM | AUC (Gefitinib): 0.995 | IC50 (Gefitinib): > 0.5 µM | AUC (NU-7441): 0.997 | IC50 (NU-7441): > 2 µM

SU-DHL-16 (B-cell lymphoma, suspension)
AUC (QL-XI-92): 0.674 | IC50 (QL-XI-92): 1.69 µM | AUC (WHI-P97): 0.992 | IC50 (WHI-P97): > 10.2 µM | AUC (EHT 1864): 0.957 | IC50 (EHT 1864): > 10 µM | AUC (AG-014699): 0.988 | IC50 (AG-014699): > 5 µM | AUC (Vinorelbine): 0.365 | IC50 (Vinorelbine): 0.00188 µM | AUC (Phenformin): 0.483 | IC50 (Phenformin): 228 µM | AUC (S-Trityl-L-cysteine): 0.684 | IC50 (S-Trityl-L-cysteine): 0.893 µM | AUC (XL-184): 0.604 | IC50 (XL-184): 0.57 µM | AUC (Gefitinib): 0.996 | IC50 (Gefitinib): > 0.5 µM | AUC (NU-7441): 0.992 | IC50 (NU-7441): > 2 µM
